This is an account of results in the RNAGym collection of RNA variant scans (doi:10.7554/elife.90254).

Read counts are not given, so values of variants with three or more changes are uncertain.

The chains are these.
B1: LINE1-mini (parent)
chain: GGCAGAGCUCAACACAGCGUGGCAAAGUGGCUGUGGCUAGACUGCC

The variants in this data set derive from B1. Put plainly: self-cleavage, relative activity (ratio to wild type); higher = more cleavage; in vitro, sequencing; the parent is a self-cleaving ribozyme.
Turning to GGCAGCGCUCAAUACAGCGUGGCUAAGUGGCUGUGGCUAGACUCCC [A6C C13U A24U G44C], the self-cleavage is 0.06. The figure for GGCAGCGCUGAACACAGCGUGGCAAAGUGGCUGUGGCUAGACUGAC [A6C C10G C45A] is 0.03; for GGCAGCCCUCAACACAGCGUGCCAAAGUGGCUGUGCAUAGACUGCC [A6C G7C G22C G36C C37A] it is 0.18. The figure for GGCAGCGCUCAAUAGAGCGUGUUAAAGUCGCUGUGGCUAGAAUGCC [A6C C13U C15G G22U C23U G29C C42A] is 0.01. As to GGCAGCGCUCAACAUAGCUUGGCAAAGUGGCUGUGGCGAGACUGCC [A6C C15U G19U U38G], the self-cleavage came to 0.02. The value for GGCAGCUCUCAACACAGCGUGACAAAGUGGCUGUGGCUAGACUGGA [A6C G7U G22A C45G C46A] was 1.1. The figure for GGCAGCACUUAACACAGCGUGGCAAAGUGGCUGUGGCUAGACUGCC [A6C G7A C10U] is 0.03; for GGCAGCGCUGAACACAGCGUGGCAAAGUUACUGUGGGUAGACUGCC [A6C C10G G29U G30A C37G] it is 0.02; for GGCAGCGCUCAACACAGCGUGGAAGAGUGGACGUGCCGAGACUGCU [A6C C23A A25G C31A U32C G36C U38G C46U] it is 0.01.

In the case of GGCAGCCCUCUACACAGCGUGGCAAAGUGGCUGUGGCUAGACUGCC [A6C G7C A11U], the self-cleavage was found to be 0.11. The value for GGCAGCACUCAACACAGCGUGGCAAAGUGGCUGUUGCAAGACUGAC [A6C G7A G35U U38A C45A] was 0.38. The value for GGCAGCGCUCAACAUGGCGUGGCAAGGUGGCUAUGGCUAGAGUGCC [A6C C15U A16G A26G G33A C42G] was 0.06; that for GGCAGCUCUCGACACAGCGUGGCAAAGUGGCUGUGGCUAGACUGCC [A6C G7U A11G] was 0; that for GGCAGCCCUCAACAGAGCGUGGCAAAGUGGCAAUGGCUAGAAUGCC [A6C G7C C15G U32A G33A C42A] was 0. The value for GGCAGCGCUUAACACAGCGAGGCAAAGUUCCUGAGGCUAGACUGCC [A6C C10U U20A G29U G30C U34A] was 0.03; that for GGCAGCGCUCAAUACAGCGUGGCAAAGUGGCUGUGGCUAGAGUGCC [A6C C13U C42G] was 0.03. GGCAGCGCUCAACAUAGAGUGGCAAAGUUGCUGUGGCUAGACUGCC [A6C C15U C18A G29U]: the self-cleavage turned out to be 0.11. The figure for GGCAGCGCUCAACAAAGCGUGGCAAAGUUGCUGUGGCUCGGCUGCC [A6C C15A G29U A39C A41G] is 0.06; for GGCAGCGCUCAACAAAGCGUGGCAAAGUGGCUGUGGCUAGACUUCC [A6C C15A G44U] it is 0.05; for GGCAGCGCUCAACAUAGCGUGUCAAAGUGGCUGUGGCUAGACUACC [A6C C15U G22U G44A] it is 0.31.

Take GGCAGCGCUGAACACAGCGUGCCAAAGUGGUUGUGGCUAGACUGCC [A6C C10G G22C C31U]: the self-cleavage is 0. The value for GGCAGCGCUCAACACAACGUGGCAAAGUGGCUGUCGCUAGACUGCC [A6C G17A G35C] was 0.05; that for GGCAGCGCUGAACACACCGUGGCAAAGUGGAUGUGGCUAGACUGCC [A6C C10G G17C C31A] was 2.75; that for GGCAGCCCUCAACACAGAGUGGCAAAGUGGCUGUGGCUAGACUGCC [A6C G7C C18A] was 0.01. On to GGCAGCGCUCAACACAGCGUGGCAAAGUGGUUCUGGCGAGACUCCC [A6C C31U G33C U38G G44C], for which the self-cleavage amounted to 0.03.

On to GGCAGCGCUCAACACAGAGUGGCAAAGUGGCUGUGGUUAGACUGCA [A6C C18A C37U C46A], for which the self-cleavage came to 0.03. The figure for GGCAGCGCUCAAUACAACGUGGCAACGUGGCUGUGGCUAUACUGCC [A6C C13U G17A A26C G40U] is 0.61; for GGCAGCACUCAACACAGCGUGGCAAAGUGGCUGUUGCUAGACUGCC [A6C G7A G35U] it is 0.29; for GGCAGCGCUCAACAGAGCAUGGCAAAGUGGCUGUGGCUAGACUGCC [A6C C15G G19A] it is 0.06.

On to GGCAGCUCUCCACACAGCGUGGCAACGUGGCUGAGGCUAGACUGCC [A6C G7U A11C A26C U34A], for which the self-cleavage came out at 0.03. The value for GGCAGCGCUUAACACAGAGUGGCAAAGUGGCUGUGGCUAUACUGCC [A6C C10U C18A G40U] was 0.01. The figure for GGCAGCACUCAACACAGGGUGGCAAAGCAGCUACGGCUAAACUGCC [A6C G7A C18G U28C G29A G33A U34C G40A] is 0.01. Take GGCAGCGCUCAACACAACGUGGCUAAGUGGCUGUGGCUAAACUGCC [A6C G17A A24U G40A]: the self-cleavage stood at 0.04. In the case of GGCAGCCCUCAACACAGCGUGGCACAGUGUCUGUGGCUAGACUGCC [A6C G7C A25C G30U], the self-cleavage amounted to 0.07. The figure for GGCAGCGCUCAACAAAGCUUCGCAAAGUGGCUGUGGCUAGACUGCC [A6C C15A G19U G21C] is 0.09; for GGCAGCACUCAACACAGCGUGGCAAGGGGGCUGUGGCUAGACUGCC [A6C G7A A26G U28G] it is 0.09; for GGCAGCGCUCAAUACAGCGUGGCAAAUUGGCUGUGGCGAGACUGCC [A6C C13U G27U U38G] it is 0.02. The figure for GGCAGCCCUCAACACAGCGUGGCAAAGUGGCUGUUGCUAGACUGCA [A6C G7C G35U C46A] is 0.03. The figure for GGCAGCGCUCAACACAGAGCGGCAAAGUGGCUGUGGAUAGACUGCG [A6C C18A U20C C37A C46G] is 0.01; for GGCAGCGCUUAACACAGCGUGGCAAAGUGGCUGAGGCUAGACUGCC [A6C C10U U34A] it is 0.05.

For the variant GGCAGCUCUCAACACAGCGUGGCAAAGUGGCUGUGGCUAGACUGCU [A6C G7U C46U], the self-cleavage is 0.06. The value for GGCAGCGCUCAAAACAGCGUGGCCAAGUGGCUCUGGCUAGACUGCC [A6C C13A A24C G33C] was 0.05; that for GGCAGCGCUCAACACAGCGUGGAAAAGGGGCUGUGGCUAUACUGCC [A6C C23A U28G G40U] was 0.38; that for GGCAGCGCUCAACACAGCGUGGGAAAGUGUCUGUGGCUAGACUUCC [A6C C23G G30U G44U] was 0.09. Regarding GGCAGCGCUCAACACAACGUGGCAAAUUGGCUGUGGCUAGAUUGCC [A6C G17A G27U C42U], the self-cleavage turned out to be 0.37. The figure for GGCAGCGCUCAAAACAGCGUGGCAAAGUGGUUGUGGCUAGACUGCC [A6C C13A C31U] is 0.01.

For the variant GGCAGCACUCAACACAGCGUGGCACAGUGGCUGUGGCUAGACUGCC [A6C G7A A25C], the self-cleavage is 0.18. The figure for GGCAGCGCUCAAAACAGCGUGGCAAAGUGGCUGUGGCUAGACUGUC [A6C C13A C45U] is 0.04; for GGCAGCGCUCAACAGAGCUUGACAAAGUGGCUGUGGUUAGACUGCC [A6C C15G G19U G22A C37U] it is 0.04. The value for GGCAGCACUCAACACAGCGUGGCAAAGUGGCUGUGGCUACACUGCC [A6C G7A G40C] was 0.14. GGCAGCGCUCAAUACGGCGUAGCAAAUUGGCUGUGGCUAGACUGCC [A6C C13U A16G G21A G27U]: the self-cleavage is 0.13. The value for GGCAGCGCUCAACACAGCGUGGCAAAGUGGCUGUGGCUAGACUGGU [A6C C45G C46U] was 0.41; that for GGCAGCGCUCAACACAGCGUGGGAAAGUGGCUGUCGCUAGACUGCC [A6C C23G G35C] was 0.01; that for GGCAGCGCUUAACACAAGGAGGCAAAGUGGCUGUGGCUAGACUGCC [A6C C10U G17A C18G U20A] was 0.08. The figure for GGCAGCGCUCAACAUAGCGUGGCAAAGUGGCUGUGGCUAGACUUCC [A6C C15U G44U] is 0.09; for GGCAGCGCUCAACACAGGGUGGCGAAGGGACUCUGGCUAGACUUCC [A6C C18G A24G U28G G30A G33C G44U] it is 0.02.
